{"source": "ChEMBL document CHEMBL4888484", "about": "“Replenishing the malaria drug discovery pipeline: Screening and hit evaluation of the MMV Hit Generation Library 1 (HGL1) against asexual blood stage Plasmodium falciparum ,using a nano luciferase reporter read-out” (2022)", "note": "Screen size: about 4,800 compounds; about 420 (8.8%) showed an effect of 50% or more. This is one part of the list."}
{"system": "Plasmodium falciparum", "experiment": "Confirmatory screen in NF54 nanoGlo assay, in single point, at 2uM, 72h", "format": "functional, Erythrocyte", "conditions": "timepoint 72 hour", "units": {"% Inhibition": "%"}}
{"smiles": "COc1ccc(OCc2nc3cc4c(cc3cc2C(=O)O)OCO4)cc1", "% Inhibition": 2}
{"smiles": "CO[C@@H](CNc1nc(C)c(S(N)(=O)=O)s1)c1ccc(F)cc1", "% Inhibition": -4}
{"smiles": "CN(CCCNC(=O)Cc1n[nH]c(=O)c2ccccc12)Cc1ccccc1", "% Inhibition": -2}
{"smiles": "CCS(=O)(=O)c1cccc(N[C@@H](C)COC)c1", "% Inhibition": 0}
{"smiles": "CCN1CCN(c2cccc(NC(=O)c3cc(F)cc4c(=O)c5cc(F)ccc5[nH]c34)c2)CC1", "% Inhibition": 97}
{"smiles": "CNC(=O)c1cc(NS(=O)(=O)N2CCCCCC2)ccc1F", "% Inhibition": -8}
{"smiles": "COc1ccccc1C(=O)NC1=C(C)Nc2ncnn2[C@H]1c1c[nH]c2ccccc12", "% Inhibition": -5}
{"smiles": "C[C@@H]1Oc2ccc(-c3csc(NC(=O)c4ccccc4Cl)n3)cc2N(C)C1=O", "% Inhibition": 6}
{"smiles": "C[C@H](NC(=O)c1cc(F)cc(F)c1)c1ccccc1NC(=O)c1cc(F)cc(F)c1", "% Inhibition": -2}
{"smiles": "CC1CCC2(CC1)N=C(c1ccccc1)C(=O)N2CC(=O)N[C@H]1CCc2ccccc21", "note": "(some centres not stated)", "% Inhibition": -3}
{"smiles": "C[C@]1(CCc2ccc(O)cc2)Nc2ccccc2-c2nc(=O)c(-c3ccc(F)cc3)nn21", "% Inhibition": 8}
{"smiles": "Cc1ccc(C)c(C(=O)Cn2nc3ccc(-c4ccc(Cl)cc4)nn3c2=O)c1", "% Inhibition": -7}
{"smiles": "O=C(NC1(C(F)(F)F)Oc2cc(Cl)c(Cl)cc2O1)N1CCCC1", "% Inhibition": -11}
{"smiles": "Cc1oc(C(=O)N2CC3(CCCC3)c3ccccc32)cc1S(=O)(=O)N(C)C", "% Inhibition": 4}
{"smiles": "O=C(Nc1ccccc1CN1CCc2ccccc21)NC1CCC(O)CC1", "note": "(configuration not stated)", "% Inhibition": -2}
{"smiles": "Cc1ccnc2nc(C(=O)N(C)c3ccc(Cl)cn3)nn12", "% Inhibition": 16}
{"smiles": "Cn1c(-c2ccc(-c3ccccc3)cc2)cn2cc(-c3cccc(Br)c3)nc12", "% Inhibition": 0}
{"smiles": "CCN(C[C@H]1CCCO1)C(=O)c1cnc(Cc2ccccc2)s1", "% Inhibition": -16}
{"smiles": "CCN(C(C)=O)c1nc(CN2C(=O)N[C@](C)(c3ccc(F)cc3Br)C2=O)cs1", "% Inhibition": 4}
{"smiles": "CCn1cnc2c(N3CCC[C@H](c4ccncc4)C3)ncnc21", "% Inhibition": 68}
{"smiles": "CCN(CCN(C)C)C(=O)c1cccc(-c2ccc3nccc(N)c3c2)c1", "% Inhibition": 70}
{"smiles": "CC(C)c1cnc(NCCCC[C@H]2CCCO2)nc1", "% Inhibition": -2}
{"smiles": "Cc1cc(C)n(C(=O)CNC(=O)c2cccs2)n1", "% Inhibition": -11}
{"smiles": "Cc1c(C(C)C)c(=O)n(-c2ccc(S(=O)(=O)N3CCN(c4nc5ccccc5nc4-c4ccccc4)CC3)cc2)n1C", "% Inhibition": -20}
{"smiles": "O=C(NCc1ccncc1)c1ccco1", "% Inhibition": -11}
{"smiles": "Cc1ccccc1Cn1cnc2c1c(=O)n(C1CCCCC1)c(=O)n2-c1ccccc1Cl", "% Inhibition": 78}
{"smiles": "c1ccc(N2CCN(c3nc(N4CCCC4)c4nccnc4n3)CC2)cc1", "% Inhibition": 3}
